Measurements as given in PubChem BioAssay (NCI).
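Dose response: 5 concentrations. Exposure: 48 h. Format: 96-well plates. Endpoint: linear interpolation; highest concentration if not reached. GI50 is the concentration that inhibits growth by half. TGI: total growth inhibition.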

Tested on: NCI-H322M lung
Test: NCI anticancer screen, dose series, 48 h

Structure (SMILES)	GI50 [µM]	TGI [µM]
CSc1ccc(NC(=O)c2ccc3nnn(/C(C#N)=C/c4ccccn4)c3c2)cc1	2.53	7.39
O=C1Nc2ccc(Cl)cc2/C1=C/c1cccc(OCc2ccccn2)c1	15.1	29.9
COc1ccc(/C=C/C(=O)c2ccc(N3CCN(C)CC3)cc2)c(C(F)(F)F)c1	14.6	27.7
